Test results reported in patent US20230272055A1, “ANTI-MUTANT CALRETICULIN (CALR) ANTIBODIES AND USES THEREOF” (Incyte Corporation, priority 2021, published 2023).
Positions count from the first letter of the chain named. Entries after “also recorded” stand apart in the source; their conditions may differ. One block for each molecule: values may come before it.

How the values were obtained:
[1] = test system: BaF3 cells expressing MPL/mutCALR Type 1; assay: Example 16 inhibition of cell proliferation, CellTiter-Glo 72 hours; type: cell-based; details: for inhibition of cell proliferation: 72 hours, FIG. 21B, Table 16; for IC50 for anti-mutCALR antibody mediated inhibition of cell proliferation: BaF3 cells expressing MPL/mutCALR Type 1, 72 hours, CellTiter-Glo
Procedure: The ability of the five antibodies shown here to inhibit cell proliferation was tested. Inhibition of cell proliferation was assessed using engineered BaF3 cells expressing MPL/mutCALR Type 1. Cells were plated at 5,000 cells per well in RPMI 1640+2% FBS, antibodies were added and incubated for 72 hours, followed by assessment of cell viability using the CellTiter-Glo Luminescent Cell Viability Assay (Promega, Madison, Wis.) and Top Count (Perkin Elmer, Boston, Mass.) or Pherastar (BMG Labtech, Ortenberg, Germany) for luminescence quantification. […] The data shown in FIGS. 21A and 21B were compiled from different experiments.

[2] = target: T1, recombinant MBP-mutCALR Type 1 fusion protein (Homo sapiens, UniProt P27797, DEL40-40); assay: Biacore SPR binding kinetics, Experiment 2 (parental and variant antibodies); details: Biacore 8K, 25° C., 1:1 binding model
T1 construct: His6 (N); purchased Cepter (cepterbiopartners.com), custom made

[3] = test system: Ba/F3-TPOR/mutCALR type 1 engineered cells; assay: Cell proliferation with antibody and/or ruxolitinib, mutCALR Type 1; type: cell-based; details: log value, 72 hours, marked *; for Log IC50, Antibody + ruxolitinib (extrapolated from fitted curve): with 50 nM ruxolitinib
Procedure: To test the ability of anti-mutCALR antibodies to potentiate the therapeutic response of the JAK1/2 inhibitor ruxolitinib, Ba/F3 cells were engineered to express MPL+mutCALR Type 1 (52 bp deletion) or MPL+mutCALR Type 2 (5 bp insertion) as described above. Cells were plated at 5,000 cells per well in RPMI 1640+2% FBS, treated with 50 nM of ruxolitinib and/or anti-mutCALR antibodies. Cells were incubated for 72 hours followed by assessment of cell viability using the CellTiter-Glo Luminescent Cell Viability Assay (Promega, Madison, Wis.) and Top Count (Perkin Elmer, Boston, Mass.) or Pherastar (BMG Labtech, Ortenberg, Germany) for luminescence quantification. Ruxolitinib used at a concentration of 50 nM inhibited the level of oncogenic cell proliferation by approximately 20% (dotted line).

[4] = target: T1, recombinant MBP-mutCALR Type 1 fusion protein; assay: Biacore SPR binding kinetics, Experiment 1; details: Biacore 8K, 25° C., 1:1 binding model
[5] = test system: MPL-mutCALR cells (BaF3 cells stably expressing human MPL and human mutCALR); assay: Flow cytometry binding to cell surface MPL and mutCALR (GMFI, four parameter fit); details: four parameter curve fitting
[6] = test system: Ba/F3 cells transfected with MPL and mutCALR Type 1; assay: Inhibition of cell proliferation, CellTiter-Glo 72 hours, mutCALR Type 1; type: cell-based; details: Ba/F3 engineered cells, high-throughput primary screening
Method in brief: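 Anti-mutCALR antibodies were added to engineered Ba/F3 cells (MPL with Type 1 or Type 2 mutCALR; 5,000/well, RPMI 1640, 2% FBS). Proliferation was scored as CellTiter-Glo luminescent viability following a 72 h incubation.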

[7] = target: T2, recombinant MBP-mutCALR Type 2 fusion protein (Homo sapiens, UniProt P27797); assay: Biacore SPR binding kinetics, Experiment 3
T2 construct: His6 (N); purchased Cepter (cepterbiopartners.com), custom made
Procedure: Experiment 2: Recombinant MBP-mutCALR Type 1 fusion protein was custom made at Cepter (cepterbiopartners.com). Data for the interaction of antibodies with recombinant mutCALR protein were collected at 25° C. on a Biacore 8K instrument (Cytiva, Marlborough, Mass.), and all reagents were obtained from Cytiva unless otherwise specified. The experiments were conducted using Tris-buffered saline (pH 7.2), 0.005% Surfactant P20, 1 mM CaCl2) as running buffer. To prepare the capture surfaces, anti-human IgG (Fc) antibodies (Product #29234600) was amine-coupled onto a CM4 chip (Product #BR100534) under standard conditions using an Amine Coupling Kit (Product #BR100050). Anti-mutCALR antibodies were captured onto the chip surface by injecting over flow cell 2 only at a flow rate of 10 μL/min for 30 seconds. Typical capture levels were in the range of 15-25RU. Recombinant MBP-mutCALR Type 1 fusion protein was prepared at nominal concentrations of 0, 0.75, 2.22, 6.67, 20, and 60 nM and injected over both flow cells 1 and 2 for 150 seconds at a flow rate of 69 L/min, followed by a 230-second dissociation phase at the same flow rate. The kinetics parameters were obtained by applying 1:1 binding model to fit the data from multiple-cycle injection experiments using Biacore Insight Evaluation software.
Experiment 3: The amino acid sequence of recombinant MBP-mutCALR Type 2 fusion protein used in this Experiment 3 is:
Recombinant MBP-mutCALR Type 2 fusion protein was custom made at Cepter (cepterbiopartners.com). Data for the interaction of antibodies with recombinant MBP-mutCALR Type 2 fusion protein were collected as described in Experiment 2. The chip used was a Biacore Series S Sensor Chip CM4 with anti-huFc immobilized onto the chip surface. Recombinant MBP-mutCALR Type 2 fusion protein was prepared at nominal concentrations of 1.1, 3.3, 10, 30, and 90 nM. Typical capture levels were in the range of 16-37RU.

IC50 for anti-mutCALR antibody mediated inhibition of cell proliferation [1]: >60 µg/mL
B1: AB2: anti-mutCALR antibody including VH and VL regions of antibody B3 from WO2020175689 fused to human constant regions (antibody)
heavy: QVQLQQSGAELVKPGSSVKISCKASGYTFTRNFIHWIKQQPGNGLEWIGWIFPGDGDTEYNQKFNGKATLTADKSSSTAYMQLSSLTSEDSAVYFCARGNYNYEYFDYWGQGVMVTVSSASTKGPSVFPLAPSSKSTSGGTAALGCLVKDYFPEPVTVSWNSGALTSGVHTFPAVLQSSGLYSLSSVVTVPSSSLGTQTYICNVNHKPSNTKVDKRV[omitted - human IgG1 Fc]
light: DIQMTQSPASLSASLGETVSIECLASEDIYSYLAWYQQKPGKSPQLLIFAANRLQDGVPSRFSGSGSGTQFSLKISGMQPEDEGDYFCLQGSKFPYTFGPGTKLELNRTVAAPSVFIFPPSDEQLKSGTASVVCLLNNFYPREAKVQWKVDNALQSGNSQESVTEQDSKDSTYSLSSTLTLSKADYEKHKVYACEVTHQGLSSPVTKSFNRGEC
inhibition of cell proliferation [1]: no functional activity

ka [2]: 3.44e+06 M⁻¹ s⁻¹ | kd [2]: 0.00121 s⁻¹ | Log IC50, Antibody + ruxolitinib (extrapolated from fitted curve) [3]: −1.595* μg/mL | ka [4]: 5.17e+06 M⁻¹ s⁻¹ | kd [4]: 0.00538 s⁻¹
B2: 40 (antibody)
heavy: EVQLVQSGAEVKKPGASVKVSCKVSGYTLTESSMHWVRQAPGKGLEWMGLVDPEDGETIYAQKFQGRVTMTEDTSTDTAYMELSSLRSEDTAVYYCAREEWSGDGDDAFDIWGQGTMVTVSSASTKGPSVFPLAPSSKSTSGGTAALGCLVKDYFPEPVTVSWNSGALTSGVHTFPAVLQSSGLYSLSSVVTVPSSSLGTQTYICNVNHKPSNTKVDKRV[omitted - human IgG1 Fc]
light: QSVLTQPPSVSAAPGQKVTISCSGSSSNIGSYSVSWYQQLPGTAPKLLIYDNNKRPSGIPDRFSGSNSGTSATLGITGLQTGDEADYYCGTWDSSLSAWVFGGGTKLTVLGQPKAAPSVTLFPPSSEELQANKATLVCLISDFYPGAVTVAWKADSSPVKAGVETTTPSKQSNNKYAASSYLSLTPEQWKSHRSYSCQVTHEGSTVEKTVAPTECS
MPL-mutCALR Hill Slope [5]: 0.50

IC50 for anti-mutCALR antibody mediated inhibition of cell proliferation [1]: 0.10 µg/mL | IC50 inhibition of cell proliferation [6]: 0.0022 µg/mL | ka [4]: 1.63e+06 M⁻¹ s⁻¹ | kd [4]: 0.00704 s⁻¹
B3: 4 (antibody)
heavy: EVQLVQSGAEVKKPGASVKVSCKVSGYTLTELSMQWVRQAPGKGLEWMGGFDPDDGETMYAEKFQGRLTVTEDTSTDTVYMELRSLTSEDTALYFCATSPGYDFFDYWGQGTLVTVSSASTKGPSVFPLAPSSKSTSGGTAALGCLVKDYFPEPVTVSWNSGALTSGVHTFPAVLQSSGLYSLSSVVTVPSSSLGTQTYICNVNHKPSNTKVDKRV[omitted - human IgG1 Fc]
light: SYVLTQPPSVSVAPGQTARITCGGNNIGSKSVHWYQQKPGQAPVLVVYDDSDRPSGIPERFSGSNSGNTATLTINRVEAGDEADYYCQVWDSSNDLLIFGGGTKLTVLGQPKAAPSVTLFPPSSEELQANKATLVCLISDFYPGAVTVAWKADSSPVKAGVETTTPSKQSNNKYAASSYLSLTPEQWKSHRSYSCQVTHEGSTVEKTVAPTECS
inhibition of cell proliferation [1]: substantially inhibit cell proliferation; also recorded: inhibits cell proliferation

ka [7]: 607000 M⁻¹ s⁻¹ | kd [7]: 0.00682 s⁻¹
B4: 162 (antibody)
heavy: QVQLVQSGAEVKKPGASVKVSCKVSGYTLTELSMQWVRQAPGKGLEWMGGFDPDDGETMYAEKFQGRLTVTEDTSTDTVYMELRSLTSEDTALYFCATSPGYDFFDYWGQGTLVTVSSASTKGPSVFPLAPSSKSTSGGTAALGCLVKDYFPEPVTVSWNSGALTSGVHTFPAVLQSSGLYSLSSVVTVPSSSLGTQTYICNVNHKPSNTKVDKRV[omitted - human IgG1 Fc with changes]
light: B3 light with Q16K, N25D, N75S

IC50 for anti-mutCALR antibody mediated inhibition of cell proliferation [1]: >60 µg/mL
B5: AB3: anti-mutCALR antibody including the BJ095 VH region and the BJ097 VL region from WO2019178362 fused to human constant regions (antibody)
heavy: QVQLVQSGAEVKKPGASVKVSCKASGYSFTGYYIHWVRQAPGQGLEWIGYISAYNGASSYNQKFKGRATFTVDTSISTAYMELSRLRSDDTAVYYCASSMDYWGQGTLVTVSSASTKGPSVFPLAPSSKSTSGGTAALGCLVKDYFPEPVTVSWNSGALTSGVHTFPAVLQSSGLYSLSSVVTVPSSSLGTQTYICNVNHKPSNTKVDKRV[omitted - human IgG1 Fc]
light: DVVMTQSPLSLPVTLGQPASISCKSSQSLLDSDGKTYLNWLQQRPGQSPKRLIYLVSKLDSGVPDRFSGSGSGTDFTLKISRVEAEDVGVYHCWQGTHFPYTFGQGTKLIEKRTVAAPSVFIFPPSDEQLKSGTASVVCLLNNFYPREAKVQWKVDNALQSGNSQESVTEQDSKDSTYSLSSTLTLSKADYEKHKVYACEVTHQGLSSPVTKSFNRGEC
inhibition of cell proliferation [1]: no functional activity

ka [2]: 1.84e+06 M⁻¹ s⁻¹ | kd [2]: 0.00314 s⁻¹ | Log IC50, Antibody alone (extrapolated from fitted curve) [3]: 0.180* μg/mL | Log IC50, Antibody + ruxolitinib (extrapolated from fitted curve) [3]: −0.586* μg/mL | ka [4]: 1.36e+06 M⁻¹ s⁻¹ | kd [4]: 0.00768 s⁻¹
B6: 32 (antibody)
heavy: QVQLVQSGAEVKKPGATVKISCKVSGYSFTDYFIHWVQQAPGKGLAWVGLVDPEDGETIYAEKFQGRVTITADTSTDTAYMELSSLRSEDTAVYYCATPGGILTDPDAFDIWGQGTMVTVSSASTKGPSVFPLAPSSKSTSGGTAALGCLVKDYFPEPVTVSWNSGALTSGVHTFPAVLQSSGLYSLSSVVTVPSSSLGTQTYICNVNHKPSNTKVDKRV[omitted - human IgG1 Fc]
light: QSALTQPASVSGSPGQSITISCTGTSSDVGGYNYVSWYQQHPGKAPKLMIYEVSNRPSGVSNRFSGSKSGNTASLTISGLQAEDEADYYCSSYTSSSTPYVFGTGTKVTVLGQPKAAPSVTLFPPSSEELQANKATLVCLISDFYPGAVTVAWKADSSPVKAGVETTTPSKQSNNKYAASSYLSLTPEQWKSHRSYSCQVTHEGSTVEKTVAPTECS
MPL-mutCALR Hill Slope [5]: 0.57
